{"source": "paper PMC4336329", "about": "(PLoS ONE, 2015)", "note": "The whole screen tested about 310,000 compounds, of which about 14,000 (4.5%) showed an effect of 50% or more. Effects have a minus sign here. This is one part of the list.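 Also: peak tail current of the secondary pulse compared with the same well before compound.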"}
{"target": "human ether-à-go-go-related gene (hERG) potassium channel (human, UniProt Q12809)", "sequence (Q12809 whole entry, looked up)": "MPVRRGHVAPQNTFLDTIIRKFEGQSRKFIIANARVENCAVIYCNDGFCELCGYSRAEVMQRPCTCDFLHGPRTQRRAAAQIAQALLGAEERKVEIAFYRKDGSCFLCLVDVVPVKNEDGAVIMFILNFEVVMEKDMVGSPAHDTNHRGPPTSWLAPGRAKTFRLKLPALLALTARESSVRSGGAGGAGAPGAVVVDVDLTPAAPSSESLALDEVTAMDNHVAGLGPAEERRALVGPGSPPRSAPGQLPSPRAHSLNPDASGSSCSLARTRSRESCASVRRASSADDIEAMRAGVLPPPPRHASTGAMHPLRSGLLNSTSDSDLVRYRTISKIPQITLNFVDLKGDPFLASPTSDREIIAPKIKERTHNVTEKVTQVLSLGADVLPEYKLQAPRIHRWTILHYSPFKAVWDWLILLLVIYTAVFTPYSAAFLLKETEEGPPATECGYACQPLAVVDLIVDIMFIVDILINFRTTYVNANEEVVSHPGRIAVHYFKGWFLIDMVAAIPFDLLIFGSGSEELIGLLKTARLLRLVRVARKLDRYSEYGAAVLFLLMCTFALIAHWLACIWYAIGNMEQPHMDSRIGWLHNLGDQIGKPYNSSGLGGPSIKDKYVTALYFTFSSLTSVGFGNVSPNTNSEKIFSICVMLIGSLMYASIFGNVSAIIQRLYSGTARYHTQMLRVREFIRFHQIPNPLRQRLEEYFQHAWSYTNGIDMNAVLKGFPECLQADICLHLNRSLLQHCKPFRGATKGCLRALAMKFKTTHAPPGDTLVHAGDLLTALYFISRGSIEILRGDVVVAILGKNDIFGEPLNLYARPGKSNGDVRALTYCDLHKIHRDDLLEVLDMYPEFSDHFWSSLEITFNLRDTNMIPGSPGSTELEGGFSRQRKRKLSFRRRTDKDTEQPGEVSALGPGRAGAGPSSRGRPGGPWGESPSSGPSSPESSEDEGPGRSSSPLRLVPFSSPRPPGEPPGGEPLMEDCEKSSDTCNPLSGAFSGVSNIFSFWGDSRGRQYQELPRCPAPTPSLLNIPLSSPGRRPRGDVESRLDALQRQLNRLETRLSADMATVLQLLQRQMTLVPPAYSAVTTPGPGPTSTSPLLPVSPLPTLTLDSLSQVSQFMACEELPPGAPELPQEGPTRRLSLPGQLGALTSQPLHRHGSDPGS", "assay": "primary screen, population patch clamp on CHO cells stably expressing hERG", "units": {"hERG current change (%, negative = inhibition) at 10uM": "%"}}
{"compound": "O=C(Nc1ccc(N2CCCC2)cc1)c1ccccc1[N+](=O)[O-]", "hERG current change (%, negative = inhibition) at 10uM": 5.14}
{"compound": "Cc1cc(C)cc(-n2nnc(C(=O)NCc3ccco3)c2N)c1", "hERG current change (%, negative = inhibition) at 10uM": -29.8}
{"compound": "O=C(Cc1n[nH]c(=O)[nH]c1=O)N/N=C/c1ccccc1", "hERG current change (%, negative = inhibition) at 10uM": 2.78}
{"compound": "CC(=O)COc1ccc2oc(=O)cc(-c3cc4ccccc4o3)c2c1", "hERG current change (%, negative = inhibition) at 10uM": -2.1}
{"compound": "CCN(CC)C(=O)c1[nH]cnc1C(=O)NCC(=O)OC(C)(C)C", "hERG current change (%, negative = inhibition) at 10uM": -8.81}
{"compound": "Cc1ccc(C)c(NC(=O)CSc2nccn2Cc2ccco2)c1", "hERG current change (%, negative = inhibition) at 10uM": -0.144}
{"compound": "CCS(=O)(=O)N1CCC(C(=O)Oc2ccc(Br)cc2)CC1", "hERG current change (%, negative = inhibition) at 10uM": 9.82}
{"compound": "CC(C)CSC1=NSC2=NC(=O)/C(=C\\c3cccs3)C(=N)N12", "hERG current change (%, negative = inhibition) at 10uM": 20.2}
{"compound": "Cc1cc(=O)n(CC(=O)NC2CC2)c2c1c(C)nn2-c1ccccc1", "hERG current change (%, negative = inhibition) at 10uM": 18.8}
{"compound": "CC1(C)CC(=O)C(C=Nc2ccc(NC3=C(C#N)C(=O)CC(C)(C)C3)cc2)=C(O)C1", "hERG current change (%, negative = inhibition) at 10uM": 11}
{"compound": "C=C1C[C@H]2[C@@H]3C=C(C)C4=CC(=O)CC[C@]4(C)[C@H]3CC[C@]2(C)[C@@]1(OC(C)=O)C(C)=O", "hERG current change (%, negative = inhibition) at 10uM": -21.2}
{"compound": "Cc1cc(C)c2cc3c(N)c(C(=O)Nc4c(C)[nH]c(=O)[nH]c4=O)sc3nc2c1", "hERG current change (%, negative = inhibition) at 10uM": 0.789}
{"compound": "O=C(NC1CCCC1)c1cccc2c1C(=O)c1ccc(Cl)cc1S2(=O)=O", "hERG current change (%, negative = inhibition) at 10uM": 2.87}
{"compound": "O=S(=O)(Nc1cccc2ncccc12)c1cccs1", "hERG current change (%, negative = inhibition) at 10uM": -13}
{"compound": "CCCCCCOC(=O)Cc1c(C)nc(N)[nH]c1=O", "hERG current change (%, negative = inhibition) at 10uM": 5.25}
{"compound": "COc1ccc(/C=C2\\CCCC(C(=O)C(F)(F)F)=C2O)cc1", "hERG current change (%, negative = inhibition) at 10uM": 16.3}
{"compound": "COc1ccc([N+](=O)[O-])cc1NC(=O)CCS(=O)(=O)c1ccc(Br)cc1", "hERG current change (%, negative = inhibition) at 10uM": -0.991}
{"compound": "COc1cc2c(cc1C=O)OCO2", "hERG current change (%, negative = inhibition) at 10uM": 4.19}
{"compound": "COc1cc(-c2nnc(-c3cc(OC)c(OC)c(OC)c3)o2)cc(OC)c1OC", "hERG current change (%, negative = inhibition) at 10uM": 0.923}
{"compound": "CCNC(=O)NC(=O)C(C)Oc1ccc(C(=O)OC)cc1", "note": "(stereo not drawn)", "hERG current change (%, negative = inhibition) at 10uM": 3.92}
{"compound": "CN1CCN(C(=O)C(C(=O)c2ccc(F)cc2)n2ccccc2=O)CC1", "note": "(stereo not drawn)", "hERG current change (%, negative = inhibition) at 10uM": -1.24}
{"compound": "COCCNC(=O)c1ccc(Cn2c(SCC(=O)NCC3CCCO3)nc3ccc(Br)cc3c2=O)cc1", "note": "(stereo not drawn)", "hERG current change (%, negative = inhibition) at 10uM": -17.6}
{"compound": "COc1cccc(OCCCOc2ccccc2C(C)C)c1", "hERG current change (%, negative = inhibition) at 10uM": -3.28}
{"compound": "CC(=O)Nc1ccc(N2C(=O)c3ccc(S(=O)(=O)c4ccc(C(=O)O)cc4)cc3C2=O)cc1", "hERG current change (%, negative = inhibition) at 10uM": 8.06}
{"compound": "O=C(Oc1ccc2c(c1)CCC2)N1CCOCC1", "hERG current change (%, negative = inhibition) at 10uM": 12.4}
{"compound": "O=C(CCCN1C(=O)c2cccc3cccc(c23)C1=O)N1CCN(c2ccc(F)cc2)CC1", "hERG current change (%, negative = inhibition) at 10uM": -1.91}
{"compound": "COc1ccc(NC(=O)C2CCCN2S(=O)(=O)c2ccc3c(c2)CCC(=O)N3)c(OC)c1", "note": "(stereo not drawn)", "hERG current change (%, negative = inhibition) at 10uM": -16.8}
{"compound": "O=[N+]([O-])c1cc(S(=O)(=O)Nc2ccccc2)ccc1NCc1cccnc1", "hERG current change (%, negative = inhibition) at 10uM": -0.455}
{"compound": "COc1ccc(-c2cc(C(=O)NNC3=NCCC3)c3c(C)nn(-c4ccccc4)c3n2)cc1", "hERG current change (%, negative = inhibition) at 10uM": 10.8}
{"compound": "CCc1cc(C(=O)NNC(=S)NC(C)c2ccccc2)cs1", "note": "(stereo not drawn)", "hERG current change (%, negative = inhibition) at 10uM": 2.63}
{"compound": "Cc1cccc(C(=O)N[C@H](C(=O)Nc2cc(S(=O)(=O)N3CCCCC3)ccc2C)C(C)C)c1", "hERG current change (%, negative = inhibition) at 10uM": 7.99}
{"compound": "COc1ccccc1N1CCN(C(=O)C2CCCN(S(=O)(=O)c3ccc4c(c3)CCCN4C(C)=O)C2)CC1", "note": "(stereo not drawn)", "hERG current change (%, negative = inhibition) at 10uM": 8.54}
{"compound": "CC(=O)c1cnc2c(-c3ccccc3)c(C)nn2c1C", "hERG current change (%, negative = inhibition) at 10uM": -2.36}
{"compound": "Cn1c(=O)c2c(ncn2CC(O)CO)n(C)c1=O", "note": "(stereo not drawn)", "hERG current change (%, negative = inhibition) at 10uM": 9.46}
{"compound": "CCOc1ncccc1C(=O)OCC(=O)c1ccc(C)c(C)c1", "hERG current change (%, negative = inhibition) at 10uM": -20.2}
{"compound": "Cc1ccc(OCc2cc(C(=O)N(C)Cc3cc(C4CC4)n[nH]3)no2)cc1C", "hERG current change (%, negative = inhibition) at 10uM": 7.98}
{"compound": "Cc1ccc(N/N=C/c2c(O)n(-c3ccccc3)c(=O)[nH]c2=O)cc1", "hERG current change (%, negative = inhibition) at 10uM": 4.73}
{"compound": "Cc1cc(Cl)ccc1NC(=S)NCc1ccc(S(N)(=O)=O)cc1", "hERG current change (%, negative = inhibition) at 10uM": 5.2}
{"compound": "COc1ccc([C@H]2CC(=O)C=C(c3cccc(Cl)c3)C2)cc1", "hERG current change (%, negative = inhibition) at 10uM": -11.8}
{"compound": "COC(=O)c1ccccc1N=Cc1c(O)[nH]c(=S)[nH]c1=O", "hERG current change (%, negative = inhibition) at 10uM": 14.3}
{"compound": "O=C(C1=NN[C@@H]2C(=O)N(c3ccccc3C(F)(F)F)C(=O)[C@H]12)c1cnccn1", "hERG current change (%, negative = inhibition) at 10uM": 7.64}
{"compound": "O=c1[nH]c2ccc(S(=O)(=O)N3CCN(C4CCCCC4)CC3)cc2[nH]c1=O", "hERG current change (%, negative = inhibition) at 10uM": 0.776}
{"compound": "Cn1c(C(=O)OC(C(=O)NC2CCCCC2)c2ccccn2)cc2sccc21", "note": "(stereo not drawn)", "hERG current change (%, negative = inhibition) at 10uM": -4.65}
{"compound": "Cc1cccc(C)c1N1CCN(S(=O)(=O)N(C)C)CC1", "hERG current change (%, negative = inhibition) at 10uM": 23.5}
{"compound": "Cc1ccc(S(=O)(=O)N(NC2=NS(=O)(=O)c3ccccc32)C(=O)c2ccccc2)cc1", "hERG current change (%, negative = inhibition) at 10uM": -15.7}
{"compound": "Cc1cccc(C(=O)N/N=C/C(C)Cc2ccc3c(c2)OCO3)c1", "note": "(stereo not drawn)", "hERG current change (%, negative = inhibition) at 10uM": -4.43}
{"compound": "CCC(C)(C)n1nnnc1CN1CCC(c2nc3ccc(C)cc3[nH]2)CC1", "hERG current change (%, negative = inhibition) at 10uM": -48.3}
{"compound": "CCOC(=O)N1CCN(C(=O)CCc2ccc(S(=O)(=O)NCCc3ccccc3)cc2)CC1", "hERG current change (%, negative = inhibition) at 10uM": -34.6}
{"compound": "COc1cccc(CN(C)C(=O)c2cccnc2SC)c1OC", "hERG current change (%, negative = inhibition) at 10uM": 9.74}
{"compound": "CCOc1ccccc1N1CC(C(=O)Nc2ccccc2CC)CC1=O", "note": "(stereo not drawn)", "hERG current change (%, negative = inhibition) at 10uM": 7.86}
{"compound": "CC1CCC(NC(=O)Cn2c3c(c(-c4ccccc4Cl)cc2=O)CCC3)CC1", "note": "(stereo not drawn)", "hERG current change (%, negative = inhibition) at 10uM": -20.8}
{"compound": "COc1ccc2cc3cc(C(=O)NCC4CCCO4)oc3nc2c1", "note": "(stereo not drawn)", "hERG current change (%, negative = inhibition) at 10uM": -9.38}
{"compound": "O=C(Nc1c2c(nn1-c1cccc(Cl)c1)CS(=O)C2)c1ccc2c(c1)OCO2", "note": "(stereo not drawn)", "hERG current change (%, negative = inhibition) at 10uM": -12.7}
{"compound": "COc1ccc(NC(=S)NNC(=O)Cn2nc([N+](=O)[O-])cc2C)cc1", "hERG current change (%, negative = inhibition) at 10uM": 13.7}
